What all share (experiment): Primary Screen for Target Class Profiling of Small Molecule Inhibitors of Methyltransferases
The target of test [1] is Glycine N-methyltransferase (Homo sapiens) (UniProt Q14749). The settings on record: purified enzyme, MTase-Glo SAH luminescence; measured here: GNMT inhibition; at 40 µM; stronger effect = lower value. In outline:
(§1)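 Each enzyme was assayed with SAM and its substrate. SAH formation detected by MTase-Glo luminescence; single-point 40 uM screen[…].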

Test [2] addresses Guanidinoacetate N-methyltransferase (Homo sapiens) (UniProt Q14353). To be noted: purified enzyme, MTase-Glo SAH luminescence; measured here: GAMT inhibition; at 40 µM; stronger effect = lower value. In outline:
as §1

The target in test [3] is Histamine N-methyltransferase (Homo sapiens) (UniProt P50135). To be noted: purified enzyme, MTase-Glo SAH luminescence; measured here: HNMT inhibition; at 40 µM; stronger effect = lower value. In a few lines: as §1
Test [4] has as its target Nicotinamide N-methyltransferase (Homo sapiens) (UniProt P40261). The settings on record: purified enzyme, MTase-Glo SAH luminescence; measured here: NNMT inhibition; at 40 µM; stronger effect = lower value. In outline: as §1
Test [5] concerns the target Phenylethanolamine N-methyltransferase (Homo sapiens) (UniProt P11086). The settings on record: purified enzyme, MTase-Glo SAH luminescence; measured here: PNMT inhibition; at 40 µM; stronger effect = lower value. In outline: as §1

Some of the results follow. Further columns of the screen follow, without active or inactive calls.
% is set by controls: 0 for no effect and ±100 for the full control effect.

Take `CCOc1ccc(C(=O)Nc2ccc3c(c2)C(=O)N(C)C2=NCCN23)cc1`: the activity change, negative = inhibition in test [1] was -1.36%; in test [2] it was 0%; in test [3], 2.15%; in test [4], 5.43%; in test [5] it was 2.13%.

As for `COc1ccccc1CN1C(=O)c2cc3occc3n2CC1(C)C(=O)NC1CCCCCC1` (stereo not given), the activity change, negative = inhibition is -0.008% in test [1]; 0% in test [2]; 3.6% in test [3]; 3.55% in test [4]; -2.5% in test [5].

As to `COc1ccc2cc3n(c2c1)CC(C)(C(=O)NCC1CCCO1)N(Cc1ccccc1C)C3=O` (stereo not given), the activity change, negative = inhibition in test [1] is 3.9%; in test [2], 0.271%; in test [3] it was 3.59%; in test [4], 6.71%; in test [5], 1.45%.

`O=C(c1ccccc1Cl)N1CCc2c(nc3cc(-c4ccccc4)[nH]n3c2=O)C1`: the activity change, negative = inhibition in test [1] is -27.7%; in test [2] it was -38.5%; in test [3] it was -34.6%; in test [4], -18.4%; in test [5] it was -18.2%.

As for `CC1(C(=O)NCc2ccc(F)cc2)Cn2cnc(C(=O)NCc3ccccc3Cl)c2C(=O)N1C1CC1` (stereo not given), the activity change, negative = inhibition is -15.6% in test [1]; -7.95% in test [2]; -12.7% in test [3]; -15.6% in test [4]; -11.8% in test [5].

For the compound `COc1cccc(-c2cc(C(=O)NCc3c(C)cc(C)[nH]c3=O)c3c(c2)N(C(C)C)CCO3)c1OC`, the activity change, negative = inhibition in test [1] was -9.62%; in test [2] it was -6.18%; in test [3], -4.68%; in test [4] it was -35.4%; in test [5], 17.8%.

With `COc1ccc(CN2C(=O)c3nc4ccccc4n3CC2(C)C(=O)NC2CCCCCC2)cc1` (stereo not given), the activity change, negative = inhibition in test [1] is -12.9%; in test [2], -2.2%; in test [3], -5.71%; in test [4] it was -16.3%; in test [5] it was -7.33%.

In the case of `CCN1C(=O)c2cc(C(=O)NCc3ccc(N(C)C)cc3)nn2CC1(C)C(=O)NC1CCCC1` (stereo not given), the activity change, negative = inhibition in test [1] was 8.88%; in test [2], 2.72%; in test [3], 8.54%; in test [4], 7.02%; in test [5], 7.3%.

Take `CCOc1ccc(CN2C(=O)c3cc4occc4n3CC2(C)C(=O)NC2CCC(C)CC2)cc1` (stereo not given): the activity change, negative = inhibition in test [1] was -2.9%; in test [2], 4.85%; in test [3], 1.18%; in test [4] it was -1.37%; in test [5], -5.84%.

On to `C[C@@H]1C(=O)OC[C@H]2C(C(=O)O)=C[C@@H]3CC(C)(C)C[C@]312`, for which the activity change, negative = inhibition in test [1] was -4.18%; in test [2] it was 0.245%; in test [3], 11.2%; in test [4] it was -15.1%; in test [5], -10.4%.

Regarding `COCCCN1C(=O)c2cc(-c3ccccc3)nn2CC1(C)C(=O)NCc1ccccc1` (stereo not given), the activity change, negative = inhibition in test [1] worked out at 5.54%; in test [2], 1.38%; in test [3], 4.72%; in test [4], 7.12%; in test [5] it was 0.24%.

For the compound `COc1ccc(-c2cc3n(n2)CC(C)(C(=O)NCc2ccccc2OC)N(c2cccc(C)c2C)C3=O)cc1` (stereo not given), the activity change, negative = inhibition in test [1] was 3.08%; in test [2], 4.29%; in test [3], -0.072%; in test [4] it was -0.182%; in test [5], -0.934%.

In the case of `COc1ccc(-c2cc3n(n2)CC(C)(C(=O)NC2CCCCC2)N(CCc2ccccc2)C3=O)cc1` (stereo not given), the activity change, negative = inhibition in test [1] is -3.82%; in test [2], 0.433%; in test [3], -8.18%; in test [4] it was -4.53%; in test [5], -8.14%.

`Cc1c[nH]c2nccc(Oc3c(F)cc(Nc4cc(Cl)nc(N)n4)cc3F)c12`: the activity change, negative = inhibition is -22.9% in test [1]; -9.08% in test [2]; -70.1% in test [3]; -49% in test [4]; -9.23% in test [5].

Take `CC1CCC(NC(=O)C2(C)Cc3ccccc3C(=O)N2CCc2ccc(Cl)cc2)CC1` (stereo not given): the activity change, negative = inhibition in test [1] was -4.98%; in test [2], 5.03%; in test [3] it was 4.25%; in test [4], -2.4%; in test [5], 2.74%.

Take `CCCCCC[C@@H]([C@@H](C)O)n1cnc2c(N)ncnc21`: the activity change, negative = inhibition in test [1] is 3.55%; in test [2] it was 11.3%; in test [3], 7.59%; in test [4], -6.06%; in test [5] it was 5.72%.

For `COc1cccc(Cn2nc3n(Cc4ccc(F)cc4)c(=O)c4ccccc4n3c2=O)c1`, the activity change, negative = inhibition in test [1] is 4.99%; in test [2] it was 0%; in test [3] it was 9.83%; in test [4], -0.473%; in test [5] it was 5.25%.

With `CCCn1c(=O)c2ccccc2n2c(SCC(=O)Nc3cc(F)ccc3F)nnc12`, the activity change, negative = inhibition in test [1] was 0.681%; in test [2], 0.031%; in test [3] it was 5.6%; in test [4], -1.38%; in test [5] it was 1.99%.

In the case of `Fc1ccc2c(c1)c1c3n2CCNC3CCC1` (stereo not given), the activity change, negative = inhibition in test [1] is 0.53%; in test [2] it was 5.5%; in test [3] it was 2.52%; in test [4], 11.1%; in test [5] it was -1.75%.

For the compound `CCCC1c2ccc(C)n2CCN1C(=O)Nc1ccc(F)cc1F` (stereo not given), the activity change, negative = inhibition in test [1] is -15.8%; in test [2], -2.29%; in test [3], -3.77%; in test [4], 0.113%; in test [5] it was -10.7%.

As for `Cc1ccc2n1CCN(C(=O)Nc1ccccc1F)C2C(C)C` (stereo not given), the activity change, negative = inhibition was -0.897% in test [1]; 1.53% in test [2]; -7.73% in test [3]; -12.9% in test [4]; -5.47% in test [5].

As to `Cc1ccc(CNC(=O)C2(C)Cn3nc(C(=O)NC4CCCC4)cc3C(=O)N2C)cc1` (stereo not given), the activity change, negative = inhibition is 2.76% in test [1]; 0% in test [2]; -0.577% in test [3]; 7.94% in test [4]; 3.23% in test [5].

On to `Cc1ccc(CN2CCC(CNC(=O)NC(C)C)C2)cc1C` (stereo not given), for which the activity change, negative = inhibition is -1.54% in test [1]; 1.99% in test [2]; -0.39% in test [3]; -0.953% in test [4]; -0.43% in test [5].

Consider `N#Cc1ccc(CN2C[C@@H](CO)[C@H](NC(=O)c3ccccc3)C2)cc1`, for which the activity change, negative = inhibition is -0.235% in test [1]; -1.4% in test [2]; -0.013% in test [3]; 1.48% in test [4]; -4.71% in test [5].

For the compound `CCCCCCCCc1ccc(-c2ccc(C(=O)O)cc2)cc1`, the activity change, negative = inhibition in test [1] was 2.41%; in test [2] it was 12.5%; in test [3] it was 3.57%; in test [4], -7.13%; in test [5] it was 9.77%.

Turning to `O=S(=O)(NCC1CN(CC2CC2)CC12CCCCC2)c1cccs1` (stereo not given), the activity change, negative = inhibition in test [1] was -6.12%; in test [2], -2.53%; in test [3], -18%; in test [4] it was -10.2%; in test [5], -4.92%.

Regarding `OC[C@H]1O[C@@H](n2cnc3c(NCc4ccc(O)cc4)ncnc32)[C@H](O)[C@@H]1O`, the activity change, negative = inhibition in test [1] was 9.57%; in test [2] it was 16%; in test [3], 4.99%; in test [4], -0.16%; in test [5], 2.82%.

Take `CC(C)NC(=O)CCn1ccc2cc(S(=O)(=O)N3CCCCC3)ccc21`: the activity change, negative = inhibition in test [1] amounted to 3.18%; in test [2], 0%; in test [3], 2.58%; in test [4] it was 7.88%; in test [5], 3.94%.

For the compound `CCOc1ccc(CNC(=O)CCCn2ccc3cc(S(=O)(=O)N4CCCC4)ccc32)cc1`, the activity change, negative = inhibition came to 4.09% in test [1]; 0.303% in test [2]; 3.85% in test [3]; 3.53% in test [4]; 3.23% in test [5].

For the compound `CC(C)NC(=O)c1ccc2c(=O)n(Cc3ccccc3)c3nn(Cc4ccccc4Cl)c(=O)n3c2c1`, the activity change, negative = inhibition amounted to 4.05% in test [1]; 0.073% in test [2]; 0.238% in test [3]; 2.75% in test [4]; 2.1% in test [5].

As for `C=C(C)Cn1c(SCC(=O)c2cccs2)nc2sc3c(c2c1=O)CCCC3`, the activity change, negative = inhibition in test [1] was -5.97%; in test [2], -13.1%; in test [3], 5.74%; in test [4] it was -32.3%; in test [5] it was -4.91%.

(Values after PubChem BioAssay AID1745853 (National Center for Advancing Translational Sciences (NCATS), 2022).)
